Test results: the supplement of paper PMC3334620
The full ranking holds about 33,000 sequences; the median of “E-score (-0.5 to 0.5)” is about -0.016, and the highest 2% start at about 0.32. The list shows a part of the results.

What follows are sequences tested against T1, Stp1 (UniProt B3LFK1) (assay: PBM E-score (8-mer binding enrichment) (E-score (-0.5 to 0.5)); higher = stronger / more preferred TF binding; most listed sequences are background and not binding sites). Conditions: protein concentration: 200 nM; construct: GST-full length.
T1 sequence: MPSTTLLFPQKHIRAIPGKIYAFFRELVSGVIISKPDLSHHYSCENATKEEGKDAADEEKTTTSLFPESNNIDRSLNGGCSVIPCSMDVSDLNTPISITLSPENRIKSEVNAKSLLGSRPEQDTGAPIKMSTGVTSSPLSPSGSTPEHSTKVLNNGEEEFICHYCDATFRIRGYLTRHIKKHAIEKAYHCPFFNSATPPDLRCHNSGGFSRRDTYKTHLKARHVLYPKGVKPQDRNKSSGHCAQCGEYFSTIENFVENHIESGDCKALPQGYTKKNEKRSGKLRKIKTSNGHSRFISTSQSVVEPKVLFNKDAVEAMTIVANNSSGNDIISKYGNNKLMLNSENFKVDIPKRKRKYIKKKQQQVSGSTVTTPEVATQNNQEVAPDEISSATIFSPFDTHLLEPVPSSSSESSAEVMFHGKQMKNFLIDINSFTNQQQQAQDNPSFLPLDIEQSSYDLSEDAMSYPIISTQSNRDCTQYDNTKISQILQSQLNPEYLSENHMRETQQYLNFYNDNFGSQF
Procedure, shortened: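 Yeast transcription factors, full-length or as DNA-binding domains, were expressed with a GST tag using PURExpress in vitro transcription/translation. At about 100-200 nM they were applied to universal all-10-mer Agilent arrays, double-stranded by primer extension on fresh or once-stripped slides. Fluorescent anti-GST detected bound protein, and masliner normalised the scans. E-scores for ungapped eight-base words, pooled with reverse complements, came from the Universal PBM Analysis Suite.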

| Sequence | PBM E-score |
| --- | --- |
| AGTCCGAA | 0.0608 |
| AATTTTAT | 0.203 |
| CACCATTC | 0.0105 |
| ACCAATGA | -0.178 |
| AGGAGTAC | -0.122 |
| AGTAGTCG | -0.0173 |
| ATTCAAAC | 0.11 |
| ACGGGAGA | -0.0974 |
| ACAGGTTA | -0.21 |
| CCCAACCA | -0.0358 |
| CCTTGCAA | 0.126 |
| GCTGTGAA | -0.0891 |
| TATGCTCA | -0.0187 |
| ATGTCCAA | 0.0605 |
| TGCGTAAA | 0.115 |
| GCGAAGAC | -0.013 |
| CGTTCTTC | 0.156 |
| GAAAACCC | -0.036 |
| AATGAGCA | -0.158 |
| AGCCCCAG | -0.0897 |
| AATTCATC | -0.135 |
| GTTCACCA | -0.0849 |
| CCGTAGAG | 0.0533 |
| ATGCCCAG | -0.0625 |
| CGCTAAAC | 0.132 |

| Sequence | PBM E-score |
| --- | --- |
| CAGTAAGC | 0.0252 |
| AGGTGCCG | 0.385 |
| GCCGAAGC | 0.0659 |
| CCCCACCG | -0.241 |
| GATATTGC | -0.0426 |
| CGGGCATC | -0.152 |
| CGGAAGTA | 0.101 |
| GATAATAA | 0.00829 |
| CCGACCAC | -0.107 |
| AACCAGAA | 0.0351 |
| GAAAGTGA | -0.272 |
| ACTAGGAC | -0.296 |
| AACTCTGA | 0.144 |
| AGATCTTG | -0.102 |
| AGCGCAAT | -0.0898 |
| CTGCTAGC | -0.247 |
| CTGAATTA | 0.139 |
| AAATTACT | 0.191 |
| CAATATAG | 0.104 |
| AGGCATAA | 0.178 |
| CTGCACTA | 0.159 |
| ATTGTCTG | -0.0201 |
| ATGGTCGG | -0.0924 |
| AGTACCGC | 0.113 |
| GTGCACAA | -0.119 |

| Sequence | PBM E-score |
| --- | --- |
| AAGTCCGT | -0.0471 |
| ACGTCGAA | -0.0911 |
| GGTTTAAA | 0.099 |
| CAGAAAGC | -0.0444 |
| CAATTCCA | -0.0728 |
| CCCGATAG | -0.195 |
| ATCTACAC | 0.0776 |
| CGGCCTAC | 0.0473 |
| ACTTTGTA | -0.00379 |
| CGTTATGC | 0.0838 |
| CTTACTGA | -0.0425 |
| CGATGCTC | -0.236 |
| TCACTGCA | 0.131 |
| TAAACGGA | 0.216 |
| AGCCACAG | -0.187 |
| GAAGTAGA | -0.0869 |
| ACAAGCAT | 0.0735 |
| ATGCTGAC | -0.0531 |
| ACAAAAAG | 0.0515 |
| CCCCTACC | -0.212 |
| AATAAGAT | 0.0522 |
| TGGGTACA | -0.0522 |
| TAGCGTGA | -0.0517 |
| GGGTAATA | -0.0259 |
| ATCATTTG | -0.137 |

| Sequence | PBM E-score |
| --- | --- |
| ACTTTTAT | 0.0423 |
| CGATACGA | -0.183 |
| CCCTACTA | -0.0442 |
| GATATGTA | 0.122 |
| CAGCAAAC | -0.0549 |
| TTAGCGAA | 0.0705 |
| CATTGAAG | -0.103 |
| CGGCTCGC | 0.281 |
| CCGACGAC | -0.17 |
| AATATAAT | 0.0522 |
| CCTTAGAC | -0.0879 |
| ACCACAAA | 0.15 |
| AGGCAGCA | 0.0881 |
| CGTGCCAG | 0.172 |
| AAGGTGAT | -0.0969 |
| CTCCATTA | -0.101 |
| AGCCTACT | -0.181 |
| CGTCTTCC | -0.0987 |
| GCCATCAA | -0.068 |
| TAACTTGA | -0.0515 |
| CCTACGCA | 0.0834 |
| AACCTCGC | -0.162 |
| CCCTCCAG | -0.207 |
| GACCGAGA | -0.0588 |
| AAGCGTCG | -0.146 |

| Sequence | PBM E-score |
| --- | --- |
| GTTGCCGA | 0.159 |
| ATCGTCCC | -0.232 |
| CCAACATA | 0.228 |
| CAAGTCTG | -0.33 |
| CGTGCGCA | 0.0559 |
| CAGGGTGA | -0.313 |
| CCCTAAGC | -0.189 |
| CGATGCTA | -0.00577 |
| CATGACAC | 0.16 |
| CAGCATTC | -0.0991 |
| ATCTGAAC | -0.00491 |
| ACTTCTGG | -0.103 |
| AGTCGCTC | -0.272 |
| CGCCACGA | 0.00358 |
| ACCAAATA | 0.183 |
| ACGCGGGA | 0.0444 |
| GCCTGCAC | -0.097 |
| GTTACATA | 0.101 |
| ACTTTGTG | 0.0858 |
| GTTCGGTA | 0.0739 |
| TGGCCGAA | -0.103 |
| CTCTCATA | 0.0216 |
| CGTCTACA | -0.184 |
| AACGGATG | 0.15 |
| CCTCATCC | -0.189 |

| Sequence | PBM E-score |
| --- | --- |
| CAGGTAGC | -0.152 |
| ACTTCGCA | -0.0561 |
| ACACCGTA | -0.0212 |
| ATCATCAC | 0.0614 |
| CCGTAGCG | 0.126 |
| TAATTGTA | 0.154 |
| AGAACCTC | -0.0711 |
| CTGGGGAA | -0.37 |
| AAGCATTA | -0.0707 |
| AATATTGA | 0.0546 |
| TCTCAGAA | 0.0131 |
| TGGGAAAA | 0.0523 |
| CAATGCGC | 0.147 |
| CTACGGGC | -0.317 |
| TCAAGTGA | -0.147 |
| GCAAACGC | -0.0167 |
| AGATGACT | -0.291 |
| AGGCCTCG | -0.202 |
| AATATTCG | 0.14 |
| CCCTACCC | -0.15 |
| GACGTGCA | 0.132 |
| ACTAACAA | 0.16 |
| TCCAACAA | 0.0431 |
| TAGTAGGA | -0.18 |
| GCTTTGAC | 0.026 |

| Sequence | PBM E-score |
| --- | --- |
| ACCGGGCC | -0.14 |
| ACCGACAC | 0.0201 |
| AGGTATAC | 0.0174 |
| AAGGACGA | -0.149 |
| GACGTATC | -0.0996 |
| CAATCTCG | 0.0119 |
| CGACGCCG | 0.457 |
| AAAAGAGG | -0.0808 |
| ATGCTCCA | -0.129 |
| GAATTCGC | 0.0576 |
| ACCGGCCG | 0.232 |
| TGTACCAA | -0.0707 |
| GAACCCAC | -0.0263 |
| AGAGTTGA | -0.284 |
| CATTTCTA | 0.0932 |
| AGATTTCG | 0.158 |
| GACGGGAA | 0.0155 |
| GAAGTCCC | -0.243 |
| GTGACCAA | -0.0172 |
| ATGATACG | 0.222 |
| CTCTGGCC | -0.0958 |
| AATTCTAG | 0.0882 |
